Measured values published in patent publication US5824771A, “Cyclic CRF agonists” (The Salk Institute for Biological Studies, priority 1997, dated 1998).
At least one peptide structure holds a part that was inferred or is arguable (an end, a ring closure or a residue). Some entries repeat one wording, which the source may state once for all of them. Bridge positions count the residues as written; N and C are the ends. Square brackets hold non-standard residues; d marks the D form. Ends that are not written are not given here. Peptide text beside a SMILES is read from it. Nle = CCCC[C@H](N)C(=O)O

Tests used:
[1] = test system: ACTH and β-END-LI secretion; assay: Secretion of ACTH and β-END-LI on administration of the peptide (in vivo testing)
Protocol: (§1) The cyclic CRF agonists are examined for their effects on the secretion of ACTH and β-endorphin in vitro and also in vivo. […] In vivo testing is carried out using the general procedure set forth in C. Rivier et al., Science, 218, 377 (1982).

[2] = test system: rat anterior pituitary cells; assay: In vitro stimulation of ACTH and β-endorphin secretion by cultured rat pituitary cells, potency compared with oCRF (Standard) or r/hCRF; assay type: cell-based; details: for stimulation of secretion of ACTH and β-END-LI (testing by the general procedure), in words: general procedure of Example 1; for in vitro biopotency, comparison in words: compared with the Standard or with a named analog
Protocol: as §1

[3] = Lowering of blood pressure on peripheral or iv administration; assay type: in vivo; details: peripheral administration

Compound | in vitro biopotency, comparison in words [2] | also measured
CCCC[C@H](NC(=O)[C@H](CCC(=O)O)NC(=O)[C@H](CC(C)C)NC(=O)[C@@H](NC(=O)[C@H](CCC(=O)O)NC(=O)[C@H](CCCNC(=N)N)NC(=O)[C@H](CC(C)C)NC(=O)[C@H](CC(C)C)NC(=O)[C@H](Cc1c[nH]cn1)NC(=O)[C@@H](Cc1ccccc1)NC(=O)[C@@H](NC(=O)[C@H](CC(C)C)NC(=O)[C@H](CC(=O)O)NC(=O)[C@H](CC(C)C)NC(=O)C(NC)NC(C)=O)[C@@H](C)O)C(C)C)C(=O)N[C@@H](C)C(=O)N[C@@H](CCCNC(=N)N)C(=O)N[C@@H](C)C(=O)N[C@@H](CCC(=O)O)C(=O)N[C@@H](CCC(N)=O)C(=O)N[C@@H](CC(C)C)C(=O)N[C@@H](C)C(=O)N[C@@H](CCC(N)=O)C(=O)N[C@H]1CCC(=O)NCCCC[C@@H](C(=O)N[C@@H](CC(N)=O)C(=O)N[C@@H](CCCNC(=N)N)C(=O)N[C@@H](CCCCN)C(=O)N[C@@H](CC(C)C)C(=O)N[C@@H](CCCC)C(=O)N[C@@H](CCC(=O)O)C(=O)N[C@H](C(=O)N[C@H](C(N)=O)[C@@H](C)CC)[C@@H](C)CC)NC(=O)[C@H](Cc2c[nH]cn2)NC(=O)[C@H](C)NC1=O (single isomer, unassigned) [Example 19 A, (cyclo 30-33)[Ac-D/L-Agl(Me)^7, D-Phe^12, Nle^21,38, Glu^30, Lys^33]-r/hCRF(7-41)] |  | stimulation of secretion of ACTH and β-END-LI on administration of the peptide, in words [1]: stimulates the secretion of ACTH and β-END-LI
CCCC[C@H](NC(=O)[C@H](CCC(=O)O)NC(=O)[C@H](CC(C)C)NC(=O)[C@H](CCCC)NC(=O)[C@H](CCC(=O)O)NC(=O)[C@H](CCCNC(=N)N)NC(=O)[C@H](CC(C)C)NC(=O)[C@H](CC(C)C)NC(=O)[C@H](Cc1c[nH]cn1)NC(=O)[C@@H](Cc1ccccc1)NC(=O)[C@@H](NC(=O)[C@H](CC(C)C)NC(=O)[C@H](CC(=O)O)NC(=O)[C@H](CC(C)C)NC(=O)[C@H](CO)NC(=O)[C@@H](NC(=O)[C@@H]1CCCN1C(=O)[C@@H]1CCCN1C(C)=O)[C@@H](C)CC)[C@@H](C)O)C(=O)N[C@@H](C)C(=O)N[C@@H](CCCCN)C(=O)N[C@@H](C)C(=O)N[C@@H](CCC(=O)O)C(=O)N[C@@H](CCC(N)=O)C(=O)N[C@@H](CCC(=O)O)C(=O)N[C@@H](C)C(=O)N[C@@H](CCC(=O)O)C(=O)N[C@H]1CCC(=O)NCCCC[C@@H](C(=O)N[C@@H](CC(N)=O)C(=O)N[C@@H](CCCNC(=N)N)C(=O)N[C@@H](CC(C)C)C(=O)N[C@@H](CC(C)C)C(=O)N[C@@H](CC(C)C)C(=O)N[C@@H](CCC(=O)O)C(=O)N[C@@H](CCC(=O)O)C(=O)N[C@@H](C)C(N)=O)NC(=O)[C@@H](C)NC(=O)[C@H](C)NC1=O [Example 3 A, (cyclo 30-33)[Ac-Pro^4, D-Phe^12, Nle^18,21, Glu^30, D-Ala^32, Lys^33]-AHC(4-41)] (Ac-PPISLDLT[dF]HLLRE[Nle]LE[Nle]AKAEQEAEEA[dA]KNRLLLEEA-NH2; lactam 27-30) |  | stimulation of secretion of ACTH and β-END-LI (testing by the general procedure), in words [2]: strongly stimulates the secretion of ACTH and β-END-LI; in vitro potency to stimulate secretion of ACTH relative to r/hCRF (rat CRF standard) ([2]; relative to r/hCRF / native rCRF standard, cultured rat pituitary cells, limits in parentheses): 6.75 (3.76-11.95) times; lowering of blood pressure when administered peripherally, in words [3]: very significant lowering of blood pressure
CCCC[C@H](NC(=O)[C@H](CCC(=O)O)NC(=O)[C@H](CC(C)C)NC(=O)[C@H](CCCC)NC(=O)[C@H](CCC(=O)O)NC(=O)[C@H](CCCNC(=N)N)NC(=O)[C@H](CC(C)C)NC(=O)[C@H](CC(C)C)NC(=O)[C@H](Cc1c[nH]cn1)NC(=O)[C@@H](Cc1ccccc1)NC(=O)[C@@H](NC(=O)[C@H](CC(C)C)NC(=O)[C@H](CC(=O)O)NC(=O)[C@H](CC(C)C)NC(=O)[C@H](CO)NC(C)=O)[C@@H](C)O)C(=O)N[C@@H](C)C(=O)N[C@@H](CCCCN)C(=O)N[C@@H](C)C(=O)N[C@@H](CCC(=O)O)C(=O)N[C@@H](CCC(N)=O)C(=O)N[C@@H](CCC(=O)O)C(=O)N[C@@H](C)C(=O)N[C@@H](CCC(=O)O)C(=O)N[C@@H](CCC(=O)O)C(=O)N[C@@H](C)C(=O)N[C@H](C)C(=O)N[C@@H](CCCCN)C(=O)N[C@@H](CC(N)=O)C(=O)N[C@@H](CCCNC(=N)N)C(=O)N[C@@H](CC(C)C)C(=O)N[C@@H](CC(C)C)C(=O)N[C@@H](CC(C)C)C(=O)N[C@@H](CCC(=O)O)C(=O)N[C@@H](CCC(=O)O)C(=O)N[C@@H](C)C(N)=O [Example 16 A linear peptide] (Ac-SLDLT[dF]HLLRE[Nle]LE[Nle]AKAEQEAEEA[dA]KNRLLLEEA-NH2) | very significantly lesser bioactivity | 
CCCC[C@H](NC(=O)[C@H](CCC(=O)O)NC(=O)[C@@H](NC(=O)[C@H](CCCC)NC(=O)[C@H](CC(N)=O)NC(=O)[C@H](CCCNC(=N)N)NC(=O)[C@H](CC(C)C)NC(=O)[C@H](CC(C)C)NC(=O)[C@H](Cc1c[nH]cn1)NC(=O)[C@@H](Cc1ccccc1)NC(=O)[C@@H](NC(=O)[C@H](CC(C)C)NC(=O)[C@H](CC(=O)O)NC(=O)[C@@H](NC(=O)[C@H](CO)NC(C)=O)[C@@H](C)CC)[C@@H](C)O)[C@@H](C)CC)C(=O)N[C@@H](C)C(=O)N[C@@H](CCCNC(=N)N)C(=O)N[C@@H](CC(N)=O)C(=O)N[C@@H](CCC(=O)O)C(=O)N[C@@H](CC(N)=O)C(=O)N[C@@H](CCC(N)=O)C(=O)N[C@@H](CCCNC(=N)N)C(=O)N[C@@H](CCC(=O)O)C(=O)N[C@H]1CCC(=O)NCCCC[C@@H](C(=O)N[C@@H](CC(N)=O)C(=O)N[C@@H](CCCNC(=N)N)C(=O)N[C@@H](CCCCN)C(=O)N[C@@H](Cc2ccc(O)cc2)C(=O)N[C@@H](CC(C)C)C(=O)N[C@@H](CC(=O)O)C(=O)N[C@@H](CCC(=O)O)C(=O)N[C@H](C(N)=O)C(C)C)NC(=O)[C@@H](Cc2c[nH]cn2)NC(=O)[C@H](C)NC1=O [Example 16 F D-His^32 analog] (Ac-SIDLT[dF]HLLRN[Nle]IE[Nle]ARNENQREEA[dH]KNRKYLDEV-NH2; lactam 24-27) |  | stimulation of secretion of ACTH and β-END-LI (testing by the general procedure), in words [2]: stimulate the secretion of ACTH and β-END-LI; lowering of blood pressure when administered peripherally, in words [3]: very significant lowering of blood pressure
CCCC[C@H](NC(=O)[C@H](CCCCN)NC(=O)[C@H](C)NC(=O)[C@H](CCCNC(=N)N)NC(=O)[C@H](Cc1c[nH]cn1)NC(=O)[C@@H](NC(=O)[C@H](CCCC)NC(=O)[C@H](CC(N)=O)NC(=O)[C@H](CCCNC(=N)N)NC(=O)[C@H](CC(C)C)NC(=O)[C@H](CCCC)NC(=O)[C@H](Cc1c[nH]cn1)NC(=O)[C@@H](Cc1ccccc1)NC(=O)[C@@H](NC(=O)[C@H](CC(C)C)NC(=O)[C@H](CC(=O)O)NC(=O)[C@@H](NC(=O)[C@H](CO)NC(C)=O)[C@@H](C)CC)[C@@H](C)O)[C@@H](C)CC)C(=O)N[C@@H](CCC(=O)O)C(=O)NCC(=O)N[C@@H](CCC(=O)O)C(=O)N[C@@H](CCCNC(=N)N)C(=O)N[C@@H](CCC(=O)O)C(=O)N[C@H]1CCC(=O)NCCCC[C@@H](C(=O)N[C@@H](CC(N)=O)C(=O)N[C@@H](CCCNC(=N)N)C(=O)N[C@@H](CC(N)=O)C(=O)N[C@@H](CC(C)C)C(=O)N[C@@H](CCCC)C(=O)N[C@@H](CC(=O)O)C(=O)N[C@@H](CCC(=O)O)C(=O)N[C@H](C(N)=O)C(C)C)NC(=O)[C@@H](Cc2c[nH]cn2)NC(=O)[C@H](C)NC1=O [Example 16 G D-His^32 analog] (Ac-SIDLT[dF]H[Nle]LRN[Nle]IHRAK[Nle]EGEREEA[dH]KNRNL[Nle]DEV-NH2; lactam 24-27) |  | stimulation of secretion of ACTH and β-END-LI (testing by the general procedure), in words [2]: stimulate the secretion of ACTH and β-END-LI; lowering of blood pressure when administered peripherally, in words [3]: very significant lowering of blood pressure
NDDPPISIDLT[dF]HLLRN[Nle]IE[Nle]ARIENEREEAGKNRKYLDEV-NH2 (lactam 30-33) [Example 3 B, (cyclo 30-33)[D-Phe^12, Nie^18,21, Glu^30, Lys^33]-sucker urotensin] | several times that of the Standard | 
NDDPPISIDLT[dF]HLLRN[Nle]IE[Nle]ARIENEREEAGKNRKYLDEV-NH2 [Example 3 B linear counterpart] | about equipotent to the Standard | 
NDDPPISIDLT[dF]HLLRN[Nle]IE[Nle]ARIENEREEA[dA]KNRKYLDEV-NH2 (lactam 30-33) [Example 3 B D-Ala^32 analog] | significantly increases in vitro biopotency compared to the comparable analog with Gly^32 | 
NDDPPISIDLT[dF]HLLRN[Nle]IE[Nle]ARIENEREEA[dH]KNRKYLDEV-NH2 (lactam 30-33) [Example 3 B D-His^32 analog] | significantly increases in vitro biopotency compared to the comparable analog with Gly^32 | 
SEDPP[Nle]SIDLT[dF]H[Nle]LRN[Nle]IHRAK[Nle]EGEREEA[dH]KNRNLLDEV-NH2 (lactam 30-33) [Example 3 H D-His^32 analog] | increases biopotency compared to the cyclic D-Gln^32 analog | 
SEEPP[Nle]SIDLT[dF]H[Nle]LRN[Nle]IHRAK[Nle]EGEREEA[dH]KNRNLLDEV-NH2 (lactam 30-33) [Example 3 E D-His^32 analog] | increases biopotency over that of the D-Leu^32 analog | 
SEEPP[Nle]SIDLT[dF]H[Nle]LRN[Nle]IHRAK[Nle]EGEREEA[dH]KNRNL[Nle]DEV-NH2 (lactam 30-33) [Example 3 G D-His^32 analog] | increases biopotency compared to the cyclic D-Leu^32 analog | 
